Data: publication PMC5182127, “Cellular and viral peptides bind multiple sites on the N‐terminal domain of clathrin” (Traffic (Copenhagen, Denmark), 2016)
Changes are numbered by the printed parent chain. Numbers in names are those of the source. No constants are given. Whether binding was seen depends on the method and setting. Some entries that bind do so weakly or less than the wild type. For some assays here: Sequences can lack the tags named with a protein.

By UniProt entry, the sequences of proteins in these tests, tags left out. Where a name states a change or a piece, a line headed by the entry shows the natural chain unless it says otherwise.
UniProt O08838: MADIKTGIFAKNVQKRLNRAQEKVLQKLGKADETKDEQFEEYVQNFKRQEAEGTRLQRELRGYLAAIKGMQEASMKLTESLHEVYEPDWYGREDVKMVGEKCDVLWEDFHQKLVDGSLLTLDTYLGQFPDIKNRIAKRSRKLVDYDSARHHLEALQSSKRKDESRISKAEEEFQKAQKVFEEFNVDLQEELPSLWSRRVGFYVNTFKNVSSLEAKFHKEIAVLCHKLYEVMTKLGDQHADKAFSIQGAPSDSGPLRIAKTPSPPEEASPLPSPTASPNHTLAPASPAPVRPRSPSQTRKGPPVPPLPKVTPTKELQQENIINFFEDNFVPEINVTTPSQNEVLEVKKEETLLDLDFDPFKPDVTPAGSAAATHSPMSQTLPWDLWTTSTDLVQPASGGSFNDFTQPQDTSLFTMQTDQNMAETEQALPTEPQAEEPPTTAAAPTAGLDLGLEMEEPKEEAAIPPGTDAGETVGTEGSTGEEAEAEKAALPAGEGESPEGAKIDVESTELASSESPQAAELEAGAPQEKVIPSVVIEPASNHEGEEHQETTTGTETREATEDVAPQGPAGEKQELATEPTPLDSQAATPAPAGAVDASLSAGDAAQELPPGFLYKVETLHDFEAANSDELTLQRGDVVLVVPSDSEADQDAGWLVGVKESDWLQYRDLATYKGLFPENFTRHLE
UniProt P49418: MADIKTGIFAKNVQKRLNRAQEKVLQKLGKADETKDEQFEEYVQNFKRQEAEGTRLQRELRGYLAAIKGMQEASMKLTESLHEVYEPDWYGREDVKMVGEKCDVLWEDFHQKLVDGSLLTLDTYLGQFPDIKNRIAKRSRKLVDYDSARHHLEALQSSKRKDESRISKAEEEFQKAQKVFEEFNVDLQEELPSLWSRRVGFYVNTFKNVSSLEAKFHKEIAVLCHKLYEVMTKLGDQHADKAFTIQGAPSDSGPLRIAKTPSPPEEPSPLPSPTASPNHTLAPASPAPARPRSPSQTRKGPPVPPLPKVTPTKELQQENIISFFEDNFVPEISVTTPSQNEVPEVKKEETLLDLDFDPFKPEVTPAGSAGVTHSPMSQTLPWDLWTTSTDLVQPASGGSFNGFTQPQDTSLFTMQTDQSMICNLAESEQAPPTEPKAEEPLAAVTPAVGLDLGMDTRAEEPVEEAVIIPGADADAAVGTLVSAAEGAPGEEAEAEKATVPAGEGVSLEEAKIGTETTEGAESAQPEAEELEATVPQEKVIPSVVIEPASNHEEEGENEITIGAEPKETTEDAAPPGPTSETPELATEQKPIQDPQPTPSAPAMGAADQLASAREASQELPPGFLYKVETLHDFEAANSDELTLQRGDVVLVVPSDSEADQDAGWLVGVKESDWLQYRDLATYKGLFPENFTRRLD
UniProt P63010: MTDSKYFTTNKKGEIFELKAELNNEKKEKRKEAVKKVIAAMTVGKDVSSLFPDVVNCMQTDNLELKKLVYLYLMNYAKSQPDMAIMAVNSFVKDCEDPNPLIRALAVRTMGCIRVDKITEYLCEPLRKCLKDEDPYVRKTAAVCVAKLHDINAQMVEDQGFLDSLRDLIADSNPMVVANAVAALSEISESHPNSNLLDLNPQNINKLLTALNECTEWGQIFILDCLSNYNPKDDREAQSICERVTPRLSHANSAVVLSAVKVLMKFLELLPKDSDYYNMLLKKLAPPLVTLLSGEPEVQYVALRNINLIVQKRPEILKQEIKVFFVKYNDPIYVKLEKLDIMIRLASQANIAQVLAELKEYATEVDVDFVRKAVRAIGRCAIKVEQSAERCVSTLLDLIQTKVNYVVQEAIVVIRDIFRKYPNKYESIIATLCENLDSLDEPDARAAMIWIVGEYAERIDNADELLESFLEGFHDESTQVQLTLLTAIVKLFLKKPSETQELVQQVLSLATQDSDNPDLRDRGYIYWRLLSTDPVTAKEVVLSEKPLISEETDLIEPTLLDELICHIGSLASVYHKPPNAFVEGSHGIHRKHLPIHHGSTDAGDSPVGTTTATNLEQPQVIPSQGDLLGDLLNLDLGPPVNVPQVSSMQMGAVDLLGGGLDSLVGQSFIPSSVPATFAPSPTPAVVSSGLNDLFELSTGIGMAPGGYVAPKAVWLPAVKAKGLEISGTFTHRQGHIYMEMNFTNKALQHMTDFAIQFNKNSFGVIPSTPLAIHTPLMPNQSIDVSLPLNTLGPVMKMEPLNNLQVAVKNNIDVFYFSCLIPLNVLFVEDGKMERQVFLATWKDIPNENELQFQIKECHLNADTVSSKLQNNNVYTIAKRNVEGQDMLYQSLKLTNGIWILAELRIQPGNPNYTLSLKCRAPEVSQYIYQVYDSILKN
UniProt P49951: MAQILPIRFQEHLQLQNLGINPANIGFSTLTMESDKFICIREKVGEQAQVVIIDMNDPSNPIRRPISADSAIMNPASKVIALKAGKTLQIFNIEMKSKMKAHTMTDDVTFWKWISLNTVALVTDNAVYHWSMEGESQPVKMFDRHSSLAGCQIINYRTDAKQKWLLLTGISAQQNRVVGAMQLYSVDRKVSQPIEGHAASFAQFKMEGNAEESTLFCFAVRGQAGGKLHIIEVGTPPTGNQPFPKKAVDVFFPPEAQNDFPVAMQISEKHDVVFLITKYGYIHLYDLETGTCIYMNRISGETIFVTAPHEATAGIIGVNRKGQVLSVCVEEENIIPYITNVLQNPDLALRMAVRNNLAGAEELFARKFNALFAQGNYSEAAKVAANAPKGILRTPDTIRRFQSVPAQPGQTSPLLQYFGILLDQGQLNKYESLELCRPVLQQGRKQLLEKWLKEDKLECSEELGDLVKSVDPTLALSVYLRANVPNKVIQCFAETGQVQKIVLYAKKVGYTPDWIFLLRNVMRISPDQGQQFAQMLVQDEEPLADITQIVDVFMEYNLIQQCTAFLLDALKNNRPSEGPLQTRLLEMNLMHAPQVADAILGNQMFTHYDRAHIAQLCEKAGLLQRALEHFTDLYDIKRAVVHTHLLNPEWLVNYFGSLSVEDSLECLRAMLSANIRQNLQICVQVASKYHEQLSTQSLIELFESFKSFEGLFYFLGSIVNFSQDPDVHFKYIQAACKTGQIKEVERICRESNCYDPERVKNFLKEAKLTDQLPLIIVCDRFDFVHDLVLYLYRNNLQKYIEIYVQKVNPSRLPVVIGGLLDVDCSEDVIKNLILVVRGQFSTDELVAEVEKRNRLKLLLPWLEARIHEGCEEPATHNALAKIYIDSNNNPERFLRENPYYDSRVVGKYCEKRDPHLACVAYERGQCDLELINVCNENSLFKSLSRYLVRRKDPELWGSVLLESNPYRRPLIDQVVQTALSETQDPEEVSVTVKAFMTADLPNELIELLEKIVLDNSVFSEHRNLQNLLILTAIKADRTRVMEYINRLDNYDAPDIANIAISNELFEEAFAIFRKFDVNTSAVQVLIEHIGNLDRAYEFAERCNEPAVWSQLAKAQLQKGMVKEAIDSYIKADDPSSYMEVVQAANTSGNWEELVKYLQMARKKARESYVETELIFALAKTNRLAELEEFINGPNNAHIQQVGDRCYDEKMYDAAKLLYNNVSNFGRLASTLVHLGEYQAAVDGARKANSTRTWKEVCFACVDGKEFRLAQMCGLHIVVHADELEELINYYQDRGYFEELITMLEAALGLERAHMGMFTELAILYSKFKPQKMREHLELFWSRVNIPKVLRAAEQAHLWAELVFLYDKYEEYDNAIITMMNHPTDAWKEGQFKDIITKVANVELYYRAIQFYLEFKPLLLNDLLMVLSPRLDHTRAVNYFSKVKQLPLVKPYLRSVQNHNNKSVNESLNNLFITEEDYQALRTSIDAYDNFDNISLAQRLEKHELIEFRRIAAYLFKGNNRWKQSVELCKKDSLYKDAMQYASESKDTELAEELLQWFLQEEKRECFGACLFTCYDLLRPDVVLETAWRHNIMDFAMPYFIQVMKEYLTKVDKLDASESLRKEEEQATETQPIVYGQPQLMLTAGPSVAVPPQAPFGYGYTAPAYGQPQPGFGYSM
UniProt Q9Y6K9: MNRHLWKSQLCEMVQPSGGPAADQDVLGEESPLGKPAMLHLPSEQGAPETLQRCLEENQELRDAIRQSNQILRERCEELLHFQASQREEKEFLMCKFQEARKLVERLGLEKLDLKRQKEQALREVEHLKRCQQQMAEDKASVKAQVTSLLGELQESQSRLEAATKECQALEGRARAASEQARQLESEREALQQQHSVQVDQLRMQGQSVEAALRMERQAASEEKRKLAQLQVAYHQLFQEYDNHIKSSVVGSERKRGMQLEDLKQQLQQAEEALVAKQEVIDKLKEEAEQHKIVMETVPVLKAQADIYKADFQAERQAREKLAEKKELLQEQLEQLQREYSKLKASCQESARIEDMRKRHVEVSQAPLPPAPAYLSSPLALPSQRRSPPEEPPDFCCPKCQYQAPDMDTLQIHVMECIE

T1: GST‐Amph4T1 (rat, UniProt O08838 349-356)
T1 construct: also called extended amphiphysin CBM construct; source: E. coli BL21(DE3) pLysS, purified (glutathione resin, SEC)
T1 chain: ETLLDLDFLERPHRD

T2: GST‐Wbox (human) (UniProt P49418)
T2 sequence: TLPWDLWTTS

T3: GST‐AP2CBM (human, UniProt P63010 629-640)
T3 construct: also called CBM from flexible hinge of β2 adaptin subunit of human AP2; source: E. coli BL21(DE3) pLysS, purified (glutathione resin, SEC); not shown: GST, N-terminal, kept
T3 chain (looked up): GDLLNLDLGPPV

T4: GST‐AP2arrS (human, UniProt P63010 623-632)
T4 construct: also called extended arrestin motif (LLGDLL); source: E. coli BL21(DE3) pLysS, purified (glutathione resin, SEC); not shown: GST, N-terminal, kept
T4 chain (looked up): SQGDLLGDLL

T5: GST‐AmphCBM (human, UniProt P49418 349-358)
T5 construct: also called human amphiphysin I CBM; source: E. coli BL21(DE3) pLysS, purified (glutathione resin, SEC); not shown: GST, N-terminal, kept
T5 chain (looked up): ETLLDLDFDP

B1: His‐NTD‐NEMO Q89A + F91K + F9W (other, UniProt P49951 1-363, looked up)
chain: MAQILPIRWQEHLQLQNLGINPANIGFSTLTMESDKFICIREKVGEQAQVVIIDMNDPSNPIRRPISADSAIMNPASKVIALKAGKTLAIKNIEMKSKMKAHTMTDDVTFWKWISLNTVALVTDNAVYHWSMEGESQPVKMFDRHSSLAGCQIINYRTDAKQKWLLLTGISAQQNRVVGAMQLYSVDRKVSQPIEGHAASFAQFKMEGNAEESTLFCFAVRGQAGGKLHIIEVGTPPTGNQPFPKKAVDVFFPPEAQNDFPVAMQISEKHDVVFLITKYGYIHLYDLETGTCIYMNRISGETIFVTAPHEATAGIIGVNRKGQVLSVCVEEENIIPYITNVLQNPDLALRMAVRNNLAGAEELKSSVVGSERKRGMQLEDLKQQLQQAEEALVAKQEVIDKLKEEAEQHKIVMETVPVLKAQADIYKADFQAERQAREKLAEKKELLQEQLEQLQREYSKLKASCQESARIEDMRKRHVEVSQ
notes: also called mutant with disrupted clathrin and Royle boxes; printed in the text as Q98A + F91K + F9W; not shown: His6, N-terminal, kept
B2: His‐NTD‐NEMO Q89A + F91K + Q192Y (other, UniProt P49951 1-363, looked up)
chain: B1 chain with W9F, Q192Y
notes: also called His‐NTD‐NEMO mutated at both the clathrin and arrestin boxes; not shown: His6, N-terminal, kept

Tests used:
[1] = target: T1, GST‐Amph4T1; assay: pull-down; 500 µg GST or GST-peptide bait on glutathione sepharose 4B; 0.1 mg/mL wild-type or mutant His-NTD-NEMO as prey, 2 h, 4°C; 25 mM HEPES-KOH, 125 mM potassium acetate, 5 mM magnesium acetate, 2 mM EDTA, 2 mM EGTA, 1 mM DTT, pH 7.2; washes with PBS; immunoblot with anti-clathrin NTD antibody; both purified
[2] = target: GST‐AP2arrL (human) (UniProt P63010); assay: as above
[3] = target: T2, GST‐Wbox (human); assay: as above
[4] = target: T3, GST‐AP2CBM; assay: as above
[5] = target: T4, GST‐AP2arrS; assay: as above
[6] = target: GST‐HDAg‐L2 (hepatitis D virus clade II) (UniProt A4ZNG7); assay: as above
[7] = target: T5, GST‐AmphCBM; assay: as above
[8] = target: T6, His‐NTD‐NEMO (wild type) (bovine | not stated) (UniProt P49951+Q9Y6K9); assay: condition: only at low concentrations of injected His‐NTD‐NEMO; SEC-MALS; His-NTD-NEMO injected at low concentrations of a series of 6; Superdex 200 10/300, 22°C, 20 mM Tris pH 7.5, 200 mM NaCl, 1 mM DTT; both purified
[9] = target: T6, His‐NTD‐NEMO (wild type) (bovine | not stated); assay: SEC-MALS; His-NTD-NEMO injected at higher concentrations of a series of 6; Superdex 200 10/300, 22°C, 20 mM Tris pH 7.5, 200 mM NaCl, 1 mM DTT; both purified

| Molecule | binding [1] | binding [2] | binding [3] | binding [4] | binding [5] | binding [6] | binding [7] | binding [8] | binding [9] |
| --- | --- | --- | --- | --- | --- | --- | --- | --- | --- |
| His‐NTD‐NEMO (wild type) (from UniProt P49951 1-363; Q9Y6K9 246-365) | binds | binds | binds | binds | binds | no binding (tested: 0.1 mg/mL His‐NTD‐NEMO) | binds | no binding | binds |
| B1 | – | binds weakly | – | – | – | – | – | – | – |
| B2 | – | – | – | no binding (tested: 0.1 mg/mL His‐NTD‐NEMO) | – | – | – | – | – |
